The source gives no read counts; variants with many changes may rest on few reads.
B1: CPEB3 Ribozyme (parent)
chain: UAACAGGGGGCCACAGCAGAAGCGUUCACGUCGCAGCCCCUGUCAGAUUCUGGUGAAUCUGCGAAUUCUGCUGUAUAUCUC

Variants of: B1
Test: self-cleavage, relative activity (ratio to wild type); higher = more cleavage; in vitro, sequencing
In short: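 Relative activity compares each variant's cleaved/total read fraction with that of the unmutated ribozyme. To get these fractions, barcoded CPEB3 ribozyme libraries from rounds of error-prone PCR were transcribed with T7 RNA polymerase for 5 hours at 37°C and then given 15 min of DNase I treatment before EDTA was added. The RNAs were reverse transcribed with template switching and sequenced on Illumina, and DNA sequencing linked barcodes to variants. A minimum of 5 reads applied, and three batches were averaged.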
Variant A3G A18G A45U A64G U72C has a self-cleavage of 0.13.
For A3G A18G A47G U54A U67C U72C, the self-cleavage was 1.12.
In the case of A3G A18G A47U U51A A65G U69C, the self-cleavage is reported as 0.16.
A3G A18G C40U gave a self-cleavage of 0.64.
Work on A3G A18G C50U U74A U78C yielded a self-cleavage of 1.05.
For A3G A18G C62U, the self-cleavage was 0.25.
A3G A18G C81A gave a self-cleavage of 0.44.
For A3G A18G U25A U66G, the self-cleavage was 0.05.
A3G A18G U25C showed a self-cleavage of 0.44.
With A3G A18G U31G A45G A65G U66A the self-cleavage was 0.42.
Variant A3G A18G U41C U49C U66C has a self-cleavage of 0.39.
Work on A3G A18G U51C A64C U76A yielded a self-cleavage of 0.38.
Work on A3G A18G U54G A56G yielded a self-cleavage of 0.2.
A3G A18G U58C gave a self-cleavage of 0.44.
A3G A18G U58G showed a self-cleavage of 0.69.
A3G A18G U58G U72A U78C showed a self-cleavage of 0.18.
A3G A18G U60A U74G showed a self-cleavage of 0.34.
Work on A3G A18U A20G A28U U51C U72C yielded a self-cleavage of 0.55.
A3G A18U A20G U67A U76C gave a self-cleavage of 0.33.
In the case of A3G A18U A21C, the self-cleavage is reported as 0.28.
With A3G A18U A21G the self-cleavage was 0.36.
In the case of A3G A18U A21G C32U, the self-cleavage is reported as 0.41.
In the case of A3G A18U C23U U49C A65G, the self-cleavage is reported as 0.05.
A3G A18U C71A showed a self-cleavage of 0.27.
In the case of A3G A18U G33A U72C, the self-cleavage is reported as 0.19.
Variant A3G A18U U26C U67C has a self-cleavage of 0.18.
For A3G A18U U49A U76C, the self-cleavage was 0.5.
Variant A3G A18U U49C has a self-cleavage of 0.36.
Work on A3G A18U U67A yielded a self-cleavage of 0.25.
A3G A20G A35U U43G A56U A65G showed a self-cleavage of 0.2.
Variant A3G A20G A47G has a self-cleavage of 0.82.
For A3G A20G A57G U60C U76C, the self-cleavage was 0.43.
A3G A20G U25A C38U C44A U54C C68G showed a self-cleavage of 0.04.
Work on A3G A20G U25A U60A yielded a self-cleavage of 0.34.
A3G A20G U25C A64G gave a self-cleavage of 0.08.
A3G A20G U25C U31C showed a self-cleavage of 0.57.
With A3G A20G U26A the self-cleavage was 0.61.
Variant A3G A20G U26A A35U U78C has a self-cleavage of 0.21.
For A3G A20G U31C U72C, the self-cleavage was 0.34.
For A3G A20G U41C U66G A75G, the self-cleavage was 0.14.
With A3G A20G U43G A47G the self-cleavage was 0.5.
With A3G A20G U51C U54A the self-cleavage was 0.83.
In the case of A3G A20G U60C U76C, the self-cleavage is reported as 0.55.
A3G A20G U80A gave a self-cleavage of 1.11.
For A3G A20U A28G, the self-cleavage was 0.51.
For A3G A20U C32A, the self-cleavage was 0.18.
A3G A20U C71G gave a self-cleavage of 0.22.
With A3G A20U G42A U60C U66C U69A the self-cleavage was 0.25.
Variant A3G A20U U25C C59U U72C has a self-cleavage of 0.1.
Variant A3G A20U U48A U78C has a self-cleavage of 0.08.
In the case of A3G A20U U49C U72A, the self-cleavage is reported as 0.35.
With A3G A21C U26A G36C U41C A45G the self-cleavage was 0.3.
Variant A3G A21C U43G has a self-cleavage of 0.52.
A3G A21C U43G U48C U60A U80C gave a self-cleavage of 0.05.
Variant A3G A21G A47G U72C has a self-cleavage of 0.6.
Variant A3G A21G A56G U60C has a self-cleavage of 0.19.
With A3G A21G A57G the self-cleavage was 0.55.
For A3G A21G C23U A35G A45U U80A, the self-cleavage was 0.17.
Variant A3G A21G U25C U49C has a self-cleavage of 0.21.
In the case of A3G A21G U25C U51A U54A, the self-cleavage is reported as 0.14.
For A3G A21G U31C U49C U51C U54C G55A, the self-cleavage was 0.48.
A3G A21G U41C gave a self-cleavage of 0.52.
With A3G A21U C29G U41G U51A A64U U72C the self-cleavage was 0.09.
A3G A21U U25A C27U U41A showed a self-cleavage of 0.22.
For A3G A21U U25C U54A A64C, the self-cleavage was 0.08.
For A3G A28C A56G U67A, the self-cleavage was 0.19.
Work on A3G A28G A35U U41C yielded a self-cleavage of 0.49.
In the case of A3G A28G A45G, the self-cleavage is reported as 0.76.
In the case of A3G A28G A56G U78A, the self-cleavage is reported as 0.83.
In the case of A3G A28G C40U A65G, the self-cleavage is reported as 0.07.
A3G A28G G33C A35G showed a self-cleavage of 0.39.
For A3G A28G U41A G55A A65G U67C U72A, the self-cleavage was 0.15.
A3G A28G U41C U58C U76C showed a self-cleavage of 0.25.
In the case of A3G A28G U43C, the self-cleavage is reported as 0.32.
Variant A3G A28G U49C has a self-cleavage of 0.51.
Variant A3G A28G U60A A64C U69C U80C has a self-cleavage of 0.18.
For A3G A28G U66C A75G, the self-cleavage was 0.1.
Work on A3G A28U A35U C39G yielded a self-cleavage of 0.11.
In the case of A3G A28U A35U U41A C50U U51C A77C, the self-cleavage is reported as 0.07.
In the case of A3G A28U A64G, the self-cleavage is reported as 0.82.
For A3G A28U A75G, the self-cleavage was 0.83.
Variant A3G A28U U31C U80A has a self-cleavage of 0.98.
A3G A28U U43C showed a self-cleavage of 0.42.
In the case of A3G A28U U67C, the self-cleavage is reported as 0.38.
With A3G A35G A47G G63U A77U the self-cleavage was 1.26.
A3G A35G A56G U72A gave a self-cleavage of 1.15.
A3G A35G C40A A65G G73U showed a self-cleavage of 0.44.
With A3G A35G G36A U51A the self-cleavage was 1.18.
With A3G A35G U43A A47G the self-cleavage was 1.2.
A3G A35G U49C showed a self-cleavage of 0.92.
A3G A35G U60A U72A showed a self-cleavage of 0.92.
A3G A35G U60C showed a self-cleavage of 1.26.
A3G A35G U60G A64G showed a self-cleavage of 0.86.
In the case of A3G A35G U72C U78A, the self-cleavage is reported as 1.25.
Work on A3G A35U A56C A65G U74A yielded a self-cleavage of 0.15.
With A3G A35U A56G U74C the self-cleavage was 1.05.
For A3G A35U C68A C81U, the self-cleavage was 0.27.
A3G A35U U41A U48C gave a self-cleavage of 0.06.
With A3G A35U U49A A56U U69A U78C the self-cleavage was 0.17.
Work on A3G A35U U66C yielded a self-cleavage of 0.26.
Variant A3G A35U U74C has a self-cleavage of 0.98.
Work on A3G A45G A64G yielded a self-cleavage of 0.77.
For A3G A45G U69C U74C, the self-cleavage was 0.28.
A3G A45U A65G U78G showed a self-cleavage of 0.31.
Variant A3G A45U U60C U67A has a self-cleavage of 0.13.
In the case of A3G A45U U67G, the self-cleavage is reported as 0.26.
For A3G A47G A64U, the self-cleavage was 0.48.
A3G A56G U58C A75G showed a self-cleavage of 0.4.
In the case of A3G A56G U58C U69C, the self-cleavage is reported as 0.21.
Variant A3G A57G U58C has a self-cleavage of 0.45.
A3G A57G U67A U78C gave a self-cleavage of 0.34.
Work on A3G A57G U72A yielded a self-cleavage of 1.02.
With A3G A57G U78C the self-cleavage was 0.82.
In the case of A3G A57U A64G U78A, the self-cleavage is reported as 0.47.
In the case of A3G A57U A75U U80A, the self-cleavage is reported as 1.16.
A3G A57U U60C showed a self-cleavage of 0.57.
With A3G A64G U74C U78A the self-cleavage was 1.1.
With A3G A64U U76C the self-cleavage was 0.32.
In the case of A3G C4A G24A U54A A64G U76C, the self-cleavage is reported as 0.24.
Work on A3G C4G G8C A21G U26C C79A yielded a self-cleavage of 0.78.
Work on A3G C4U G52A C79U C81G yielded a self-cleavage of 1.25.
Work on A3G C11A A18G U69C yielded a self-cleavage of 0.17.
Variant A3G C11A U41C U54C A64G U78C U80C has a self-cleavage of 0.06.
A3G C11G A35G U49A U60A showed a self-cleavage of 0.3.
A3G C11G C12U G36A U78C showed a self-cleavage of 0.1.
With A3G C11G C14G A57G A65G U66C U69A the self-cleavage was 0.1.
A3G C11G U25C U72C showed a self-cleavage of 0.4.
A3G C11G U26A A28U U54C gave a self-cleavage of 0.14.
A3G C11G U58C U74A showed a self-cleavage of 0.15.
Work on A3G C11U C14U U60A U67C yielded a self-cleavage of 0.24.
Variant A3G C11U G73C A77U has a self-cleavage of 1.05.
For A3G C11U U41C U43A, the self-cleavage was 0.4.
A3G C12A A35U G42A A45G U72A showed a self-cleavage of 0.14.
A3G C12A A45U U60G C81A showed a self-cleavage of 0.88.
Variant A3G C12A C17U A28C C38G U41A has a self-cleavage of 0.1.
In the case of A3G C12A C23U C59A U76C U80A, the self-cleavage is reported as 0.07.
For A3G C12A U48C U49C U54A, the self-cleavage was 0.31.
A3G C12A U80C gave a self-cleavage of 0.9.
A3G C12G C37G U43A A47G U51C gave a self-cleavage of 0.36.
A3G C12G U49C U67C showed a self-cleavage of 0.08.
Work on A3G C12U A15G U49C U69C yielded a self-cleavage of 0.31.
For A3G C12U C79A, the self-cleavage was 1.17.
A3G C12U G19A C27U showed a self-cleavage of 0.09.
Variant A3G C12U U49C U54A A64C U72C U78C has a self-cleavage of 0.3.
For A3G C14A A64U U78C, the self-cleavage was 0.54.
Work on A3G C14G U25C U60C yielded a self-cleavage of 0.47.
For A3G C17U A28G U58C U78C, the self-cleavage was 0.09.
A3G C17U U54A U74C gave a self-cleavage of 0.8.
In the case of A3G C23A A56G, the self-cleavage is reported as 0.16.
For A3G C23G A45G, the self-cleavage was 0.5.
Work on A3G C23G U41A U43C yielded a self-cleavage of 0.41.
A3G C23U A28U A65C gave a self-cleavage of 0.09.
A3G C23U A56G gave a self-cleavage of 0.43.
For A3G C23U U43C U60A, the self-cleavage was 0.06.
For A3G C23U U48C U49A, the self-cleavage was 0.09.
For A3G C27A U43C, the self-cleavage was 0.5.
For A3G C27G A47G U60A C71G, the self-cleavage was 0.06.
In the case of A3G C29A U49A, the self-cleavage is reported as 0.42.
Variant A3G C29U A64U A65G has a self-cleavage of 0.35.
A3G C29U C34G U51C U69C showed a self-cleavage of 0.07.
A3G C29U U54C A56U gave a self-cleavage of 0.33.
Variant A3G C32A C39A A56G U69C U72C A77G has a self-cleavage of 0.
For A3G C34A C40U U51C U54C U76A, the self-cleavage was 0.1.
Variant A3G C38A A77G has a self-cleavage of 0.4.
A3G C38U U72A gave a self-cleavage of 0.5.
For A3G C39G U58G, the self-cleavage was 0.14.
For A3G C39U A56G U74C, the self-cleavage was 0.46.

From the RNAGym collection of RNA variant scans (doi:10.1093/nar/gkz1192)
